Experimental data reported in PubChem BioAssay AID1461 (National Center for Advancing Translational Sciences (NCATS), 2008).
Out of some 220,000 compounds screened, about 2,300 (1%) were called active. Inconclusive results, whose numbers are uncertain, are shown with a selection of clear calls. The call rests on the fitted dose curve; in most records, active means well fitted inhibition curve with a large enough effect; inconclusive means small, poorly fitted or top-dose-only effect, or effect the other way; inactive means no such curve, though single readings can be large or run the other way. Potencies of inconclusive entries are left out as doubtful fits.

molecular target: Neuropeptide S receptor (Homo sapiens) (UniProt Q6W5P4); assay: qHTS Assay for Antagonists of the Neuropeptide S Receptor: cAMP Signal Transduction; conditions: CHO-NPSR cells, cAMP TR-FRET, antagonist mode; activity change, negative = inhibition: at 38.3 µM (top of the series) unless noted; further: nearly all actives have a fitted effect of over 50% in size
On the % scale 0 is the no-effect control and ±100 the full control effect; potency means the concentration at half of the fitted maximal effect; tags describe the fitted curve by direction and shape.

UniProt Q6W5P4, sequence (Q6W5P4 whole entry, looked up): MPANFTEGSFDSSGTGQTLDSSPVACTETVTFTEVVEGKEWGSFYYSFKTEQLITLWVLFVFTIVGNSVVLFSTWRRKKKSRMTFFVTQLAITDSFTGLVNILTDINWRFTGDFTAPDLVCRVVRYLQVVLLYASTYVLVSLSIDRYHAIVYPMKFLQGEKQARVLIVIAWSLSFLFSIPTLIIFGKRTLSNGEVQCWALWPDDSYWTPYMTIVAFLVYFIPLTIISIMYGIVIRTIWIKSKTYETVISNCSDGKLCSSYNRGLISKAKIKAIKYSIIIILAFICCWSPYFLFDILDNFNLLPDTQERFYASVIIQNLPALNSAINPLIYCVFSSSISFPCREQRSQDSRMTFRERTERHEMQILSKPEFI

| Compound | activity change, negative = inhibition | Potency |
| --- | --- | --- |
| O=C(Nc1ncc(Cc2ccccc2Cl)s1)C1CCCO1 (stereo unspecified) | inactive: -0.174% [at 46.1 µM] | – |
| COc1ccc(-c2cc(C(=O)Nc3cc(C)on3)no2)cc1OC | inactive: -17.7% | – |
| COc1ccc2[nH]c(C)c(CCN(Cc3cccs3)C(=S)Nc3cccc(F)c3)c2c1 | inactive: -28.9% [at 46.1 µM] | – |
| N#C/C(=C\c1ccc(-c2ccccc2)o1)C(=O)Nn1cnnc1 | inactive: -5.4% [at 46.1 µM] | – |
| O=C(CSc1ccc2c(c1)OCCO2)NCC1CCCO1 (stereo unspecified) | inactive: 2.57% [at 46.1 µM] | – |
| CCCn1c(NC(=O)c2ccc(Br)cc2)nc2ccccc21 | – | inconclusive [inhibitor, single point] |
| CCN(c1ccccc1)S(=O)(=O)c1cccc(C(=O)OCc2nc3sc(C)c(C)c3c(=O)[nH]2)c1 | – | inconclusive [inhibitor, single point] |
| O=c1c2ccccc2c(-c2ccccc2)nn1-c1cc(Cl)cc(Cl)c1 | – | inconclusive [activator, single point] |
| O=C(CN1CCN(c2ccccn2)CC1)N1c2ccccc2Sc2ccc(C(F)(F)F)cc21 | – | inconclusive [inhibitor, partial curve, poor fit] |
| CC(C)(C)n1nnnc1C(c1cccs1)N(Cc1ccccc1)Cc1ccco1 (stereo unspecified) | – | inconclusive [inhibitor, partial curve] |
| Cc1cccc(CSc2nc3sc(C)c(C)c3c(=O)n2Cc2ccco2)c1 | – | inconclusive [inhibitor, single point] |
| O=C(NCc1ccc(F)cc1)c1ccc(CS(=O)(=O)Cc2ccccc2F)o1 | inactive: -1.67% [at 46.1 µM] | – |
| COc1ccc(S(=O)(=O)N2CCC(C(=O)N3CCc4ccccc4C3)CC2)cc1Cl | – | inconclusive [inhibitor, single point] |
| O=C1c2ccccc2C(=O)N1CC1c2ccccc2CCN1C(=O)C1CCCCC1 (stereo unspecified) | – | inconclusive [inhibitor, single point] |
| Cc1cccc2cc(CN(Cc3cccs3)C3(c4nnnn4C4CCCC4)CCCC3)c(=O)[nH]c12 | – | inconclusive [inhibitor, partial curve] |
| COC(=O)c1sc2nc3c(c(-c4cccs4)c2c1N)CCCC3 | – | inconclusive [inhibitor, single point] |
| CC(C)(C)C1CCc2onc(C(=O)N3CCOCC3)c2C1 (stereo unspecified) | inactive: -8.86% [at 46.1 µM] | – |
| COC(=O)N/N=C1\CCCc2ccccc21 | inactive: 13.4% | – |
| CCCCC(=O)OCC(=O)Nc1ccc(OC(F)F)cc1 | inactive: 1.43% [at 46.1 µM] | – |
| Cc1ccc(C)c(OCc2nnc(NC(=O)c3ccc4c(c3)OCO4)s2)c1 | – | inconclusive [inhibitor, single point] |
| CCOc1cc(CNCCO)cc(Br)c1OCc1ccc(Cl)cc1Cl | – | inconclusive [inhibitor, single point] |
| Cc1nn(-c2ccccc2)c2nc(N)c(C#N)c(-c3ccc(F)cc3)c12 | – | inconclusive [inhibitor, partial curve, poor fit] |
| CCC(=O)Nc1ccc(Oc2ccc3c(c2)C(=O)N(c2ccc(O)cc2)C3=O)cc1 | – | inconclusive [inhibitor, single point] |
| Cc1ccc(C)c2[nH]c(=O)c(CN(Cc3ccc4c(c3)OCO4)Cc3nnnn3Cc3ccco3)cc12 | – | inconclusive [inhibitor, partial curve] |

| Compound | activity change, negative = inhibition | Potency |
| --- | --- | --- |
| CSc1sc(C(=O)NCC2CC2)c2c1S(=O)(=O)N(C)c1ccccc1-2 | inactive: 14.5% [at 7.67 µM] | – |
| O=C(NCc1ccco1)c1cnn2c1NC(c1ccccc1)CC2C(F)(F)F (stereo unspecified) | inactive: 11.3% [at 7.67 µM] | – |
| Cn1c(C(=O)OC(C(=O)NC2CCCCC2)c2ccncc2)cc2sccc21 (stereo unspecified) | – | inconclusive [inhibitor, partial curve] |
| COc1ccc(Cn2nnnc2C(c2ccc(F)cc2)N2CCN(C3CCCC3)CC2)cc1 (stereo unspecified) | – | inconclusive [inhibitor, partial curve, poor fit] |
| O=C(C1c2ccccc2C(=O)N2CCc3ccccc3C12)N1CCN(Cc2ccccc2)CC1 (stereo unspecified) | – | inconclusive [inhibitor, single point] |
| O=C(c1ccco1)N1CCN(CC(O)COc2ccc3oc4ccccc4c3c2)CC1 (stereo unspecified) | inactive: -2.67% [at 46.1 µM] | – |
| Cc1ccc(O)c(-c2cc(C(=O)NCc3ccncc3)[nH]n2)c1 | inactive: -11.2% [at 46.1 µM] | – |
| COc1ccc(N2CCN(C(=O)CSc3ccc(C)cc3)CC2)cc1 | inactive: -0.471% | – |
| O=c1c(-c2nnc(SCc3ccc(Cl)c(Cl)c3)o2)cccn1Cc1ccccc1 | – | inconclusive [inhibitor, single point] |
| Cc1csc2c(N3CCN(C(=O)Nc4ccc(OC(F)(F)F)cc4)CC3)ncnc12 | inactive: 18.9% | – |
| CCCN(CCC)CCNC(=O)c1cc2c(=O)n(C)c3ccccc3c2n1C | inactive: 2.07% [at 46.1 µM] | – |
| O=C(OCC(=O)N1CCN(C(=O)c2ccco2)CC1)c1cc(-c2ccc(F)cc2)nc2ccccc12 | – | inconclusive [inhibitor, single point] |
| Clc1cccc(OCCN2CCNCC2)c1 | inactive: 11.2% | – |
| O=C(O)c1ccc(Nc2ncnc3c2cnn3Cc2ccccc2)cc1 | inactive: -11.1% | – |
| N#Cc1nccnc1S(=O)(=O)c1cccs1 | – | inconclusive [activator, single point] |
| COc1ccc(NC(=O)/C(=C\c2cc(OC)c(OC)cc2[N+](=O)[O-])NC(=O)c2ccccc2)cc1 | – | inconclusive [inhibitor, single point] |
| CN(C)c1ccc(/C=C/c2cc[n+](C)cc2)cc1 | – | inconclusive [inhibitor, partial curve] |
| Cc1ncsc1C(=O)N1N=C2/C(=C/c3ccccc3)CCCC2C1c1ccccc1 (stereo unspecified) | – | inconclusive [inhibitor, partial curve] |
| CN1/C(=C\C(=O)c2oc3ccccc3c2N)C(C)(C)c2ccccc21 | – | inconclusive [inhibitor, single point] |
| CCN1CCN(Cc2ccc(OCc3ccccc3)cc2)CC1 | – | inconclusive [activator, partial curve, poor fit] |
| CCCCN1CCC(n2c(=O)[nH]c3ccccc32)CC1 | – | inconclusive [inhibitor, single point] |
| Cc1cc(C)cc(NS(=O)(=O)c2ccc(NC(=S)NC(=O)c3cccs3)cc2)c1 | – | inconclusive [inhibitor, single point] |
| CCc1nc2sc3c(=O)[nH]cnc3c2c2c1CSC(C)(C)C2 | inactive: -2.98% | – |
| CC(O)Cn1ccccc1=N (stereo unspecified) | inactive: 2.55% [at 46.1 µM] | – |

| Compound | activity change, negative = inhibition | Potency |
| --- | --- | --- |
| O=C(/C=C/c1ccc(Br)cc1)c1ccc(NC2=NCCCS2)cc1 | – | inconclusive [inhibitor, single point] |
| Fc1ccccc1C1c2[nH]c3ccccc3c2CCN1Cc1ccoc1 (stereo unspecified) | – | inconclusive [inhibitor, single point] |
| COc1ccc(C2C3=C(CC(C)(C)CC3=O)Nc3c2c(=O)[nH]c(=O)n3Cc2ccccc2)cc1 (stereo unspecified) | – | inconclusive [inhibitor, single point] |
| CCn1c(-c2ccsc2)nc2c1c(=O)[nH]c(=O)n2Cc1ccccc1 | – | inconclusive [activator, partial curve, poor fit] |
| O=C1c2ccccc2-c2onc3ccc(NCc4ccco4)c1c23 | – | inconclusive [inhibitor, partial curve] |
| CCOc1ccccc1N1CC(O)=C(c2nc3ccccc3s2)C1=N | – | inconclusive [inhibitor, partial curve] |
| CN(C)C(=S)Nn1c(-c2ccccc2)nc2ccccc2c1=O | inactive: 18% | – |
| Cc1nc(OCc2ccccc2)c2sc3nc4c(cc3c2n1)COC(C)(C)C4 | – | inconclusive [inhibitor, single point] |
| COc1ccccc1NC(=O)CSc1nnc(Cc2cccn2C)n1CCc1ccccc1 | – | inconclusive [inhibitor, full curve] |
| COc1cc(C(=O)N2c3ccccc3CC2C)cc(OC)c1OC (stereo unspecified) | inactive: -8.47% [at 46.1 µM] | – |
| CCCC1S/C(=N/N=C/c2ccc(OC)cc2)N(Cc2ccc(OC)cc2)C1=O (stereo unspecified) | – | inconclusive [inhibitor, single point] |
| CN(C)S(=O)(=O)c1cccc(NC(=S)NC2CCCCC2)c1 | inactive: -9.46% | – |
| Cc1ccc(NC(=O)CN2CCCN(S(=O)(=O)c3ccc(Br)s3)CC2)cc1 | – | inconclusive [inhibitor, partial curve] |
| C=CCNC(=O)/C(C#N)=C/c1c(N(Cc2ccccc2)Cc2ccccc2)nc2ccccn2c1=O | – | inconclusive [inhibitor, partial curve] |
| O=C(COC(=O)c1ccccc1NS(=O)(=O)c1cccs1)NCC12CC3CC(CC(C3)C1)C2 | inactive: -39.9% | – |
| COc1ccc(C2CC3(CC(C)(C)NC(=S)N3)Oc3cc(O)cc(C)c32)cc1 (stereo unspecified) | inactive: -22.2% | – |
| CN1CCN(/N=C/c2nc(-c3cccc([N+](=O)[O-])c3)n3ccccc23)CC1 | – | inconclusive [inhibitor, single point] |
| Cc1ccc(OCC(=O)N/N=C\c2ccc(-c3cccc(C(=O)O)c3)o2)c(C)c1 | inactive: -24.2% | – |
| Cc1cc(O)c(-c2cc(C(=O)Nc3ccc(S(=O)(=O)N4CCOCC4)cc3)[nH]n2)cc1C | inactive: -15.2% [at 46.1 µM] | – |
| CCN(CC)S(=O)(=O)c1ccc(NC(=S)NC(=O)CC(C)C)cc1 | inactive: -26.9% | – |
| NC(=O)CSc1nc2scc(-c3ccc(Cl)cc3)c2c(=O)n1Cc1ccccc1 | – | inconclusive [inhibitor, single point] |
| Cn1c(-[n+]2c(-c3ccccc3)cc(-c3ccccc3)cc2-c2ccccc2)nc2c([N+](=O)[O-])cccc21 | – | active: 7.94 µM |
| Cc1cc2cc(CCNC(=O)c3ccc(S(=O)(=O)N4CCOCC4)cc3)c(=O)[nH]c2cc1C | inactive: -9.57% [at 46.1 µM] | – |
